Data: the RNAGym collection of RNA variant scans (doi:10.1093/nar/gkz1192)
The source gives no read counts; variants with many changes may rest on few reads.

B1: CPEB3 Ribozyme (parent)
chain: UAACAGGGGGCCACAGCAGAAGCGUUCACGUCGCAGCCCCUGUCAGAUUCUGGUGAAUCUGCGAAUUCUGCUGUAUAUCUC

Variants of: B1
Experiment: self-cleavage, relative activity (ratio to wild type); higher = more cleavage; in vitro, sequencing
Method in brief: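 Relative activity compares each variant's cleaved/total read fraction with that of the unmutated ribozyme. To get these fractions, barcoded CPEB3 ribozyme libraries from rounds of error-prone PCR were transcribed with T7 RNA polymerase for 5 hours at 37°C and then given 15 min of DNase I treatment before EDTA was added. The RNAs were reverse transcribed with template switching and sequenced on Illumina, and DNA sequencing linked barcodes to variants. A minimum of 5 reads applied, and three batches were averaged.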

Variant	self-cleavage
UAACAGGGCGCCACAGCAGAAGCGUUCACGUCGCAACCCCUGUCAGCUUCUGGUGAAUCUGCGAAUUCUGCUAUAUAUUAC [G9C G36A A47C G73A C79U U80A]	0.35
UAACAGGGCGCCACAGCAGAAGCGCUCACGUCGCAGCCCCUGUCAGGUUCUGGUGAAUCUGCGAAUUCUGCUGUAUAUCUC [G9C U25C A47G]	0.19
UAACAGGGCGCCACAGCAGAAGCGCUCACGUCGCAGCCCCCGUCAGAAUCUGGUGUAUCUGCGGAUUCUGCUGUAUAUCUC [G9C U25C U41C U48A A56U A64G]	0.05
UAACAGGGCGCCACAGCAGAAGCGCUCACGUCGCAGCCCCUGUCAGAUACUGGUGUAUCUGCGAAUUCUGCUGUAUAUCUC [G9C U25C U49A A56U]	0.2
UAACAGGGCGCCACAGCAGAAGCGCUCACGUCGCAGCCCCUGUCAGAUUCUGGUGAAUCUGCGAAUUCUGCUGUAUAACUC [G9C U25C U78A]	0.48
UAACAGGGCGCCACAGCAGAAGCGUUCACGUCGCAGCCCCGGUCAGACUCUGGUGAAUCUGCGAACUCUGCUGUAUAUCUC [G9C U41G U48C U66C]	0.04
UAACAGGGCGCCACAGCAGAAGCGUUCACGUCGCAGCCCCUGCCAGAUUCUGGUGAAUCAGCAGAUUCUGCUGUAUAUCUC [G9C U43C U60A G63A A64G]	0.06
UAACAGGGCGCCACAGCAGAAGCGUUCACGUCGCAGCCCCUGUCAGAUUCCGGUGGAUCUACGAAUUCUGCUGUAUAUCUC [G9C U51C A56G G61A]	0.16
UAACAGGGUGCCGCAGCAGAAGCGCUCACAUCGCAGCCCCUGUCUGAUUCUGGUGAAUCUGCGAAUUCUGCUGUGUAUCUC [G9U A13G U25C G30A A45U A75G]	0.1
UAACAGGGUGCCGCAGCAGAAGCGUUCACGUCGCAGCCCCUGUCAGAUUCUGGUGAAUCCCCGAAUUCUGCAGUAUAUCUC [G9U A13G U60C G61C U72A]	0.05
UAACAGGGUGCCUCAGCUGAAGCGCUCACGUCGCAGCCCCUGUCAGAUUCUGGUGAAUCUGCGAAUUCCGCUGUAUAUCUC [G9U A13U A18U U25C U69C]	0.05
UAACAGGGUGCCUCAGCAGAAGCGUUCACGUCGCAGCCCCUGUCAGAUUCUGGUGAUUCUGCGAAUUCUGCUGUAUAUCUC [G9U A13U A57U]	0.17
UAACAGGGUGCCUCAGCAGAAGCGUUCACGUCUCAGCCCCUGUCAGAUUGUGGUGAAUCUACGAAUUCUGCUGUAUAUCUC [G9U A13U G33U C50G G61A]	0.08
UAACAGGGUGCCUCAGCAGAAGCGUUCACGUCGCAGCCCCCGUCAGAUUCUAGUGAGUCUGCGAAUUCUGCUGUAUAUCUC [G9U A13U U41C G52A A57G]	0.17
UAACAGGGUGCCUCAGCAGAAGCGUUCACGUCGCAGCCCCUGUCAGAUCCUGGUGAACCCGCGAAUUCUGCUGUAUAUCUC [G9U A13U U49C U58C U60C]	0.06
UAACAGGGUGCCUCAGCAGAAGCGUUCACGUCGCAGCCCCUGUCAGAUUCUGGUGAAUCCGCGAAUUCUGCGGUACAUCUC [G9U A13U U60C U72G U76C]	0.04
UAACAGGGUGCCACGGCGGAAGCGUACGCGUCGCAGCCCCUGUCAGAUUCUGGUGAAUCUGCGAACUCUGCUGUAUAUCUC [G9U A15G A18G U26A A28G U66C]	0.07

Variant	self-cleavage
UAACAGGGUGCCACUGCAGAAGCGUUCGCGUCGCAGCCCCUGUCAGAUUCUGGUGAAUCUGCGAACUCUGCUGUAUAUCCC [G9U A15U A28G U66C U80C]	0.16
UAACAGGGUGCCACUGCAGAAGUGUUCACGUCGCAGCCCCUGUCAGAUUCUGGUGAAUCUGCGAAUUCUGCUGUAUAUCUC [G9U A15U C23U]	0.31
UAACAGGGUGCCACUGCAGAAGCGUUCACGUCGCAGCCACUGUCAGAUUCUGGUGAAUCUGCGAAUUCUGCUGUAUAUCUC [G9U A15U C39A]	0.05
UAACAGGGUGCCACAGCUGAAGCGCGCACGUCGCAGCCCCUGCCAGAUCCUGGUGAAUCUGCGAAUUCUGCUGUAUAUCUC [G9U A18U U25C U26G U43C U49C]	0.06
UAACAGGGUGCCACAGCAGGAGCGUUCGCGUCGCAGCCCCUGUCAGAUUCUGGAGAAUCUGCGAAUUCAGCUGUAUAUCUC [G9U A20G A28G U54A U69A]	0.04
UAACAGGGUGCCACAGCAGGAGCGUUCACGUCGCUGCCCCUGUCAGAUUCUGGUGUAUCUGCGAAUUCUGCUGUAUAACUC [G9U A20G A35U A56U U78A]	0.06
UAACAGGGUGCCACAGCAGGAGCGUUCACGUCGCAGCCCCUGUCGGAUUCUGGUGAAUCUGCGAAUUCUGCUGUAUAUCCC [G9U A20G A45G U80C]	0.03
UAACAGGGUGCCACAGCAGGAGCGUUCAUGUCGCAGCCCCUGUCCGAUUCUGGUGAAUCUGCGAAUUCUGCUGUAUAUCUC [G9U A20G C29U A45C]	0.22
UAACAGGGUGCCACAGCAGGAGCGUUCACGGCGCAGCCCCUUUCAGAUACUGGUGGAUCUGCGAAUUCUGCUGUAUAUCUU [G9U A20G U31G G42U U49A A56G C81U]	0
UAACAGGGUGCCACAGCAGGAGCGUUCACGUCGCAGCCCCUGUCAGAUUCAGGUGAAUCUGCGAAUUCUGCUGUAUAUCCC [G9U A20G U51A U80C]	0.19
UAACAGGGUGCCACAGCAGUAGCGUUCACGUCGCAGCCCCUGUCAGAUUCUGGUGGAUCUGCGAAUUCCGCUGUAUAUCUC [G9U A20U A56G U69C]	0.05
UAACAGGGUGCCACAGCAGAGGCGUUCACGUCGCAGCCCCUGUCAGAUUCUGGUGAAUCUGCGAACUCUGCUGUAUAUCUC [G9U A21G U66C]	0.18
UAACAGGGUGCCACAGCAGAUGCGUUCACGUCGCAGCCCCUGUCAGAUUCAGGUGGAUCUGCGAAUUCUGCUGUAUAUCCC [G9U A21U U51A A56G U80C]	0.16
UAACAGGGUGCCACAGCAGAAGCGUUCUCGUAGCAGCCCCUGUCAGAUUCUGGUGAAUCUGCGAAUUCUGCUGUAUAUCUC [G9U A28U C32A]	0.26
UAACAGGGUGCCACAGCAGAAGCGUUCACGUCGCUGCCCCUGUCAGAUUCUGGUGGUUCUGCGAAUUCUGCUGUAUAUCUC [G9U A35U A56G A57U]	0.12
UAACAGGGUGCCACAGCAGAAGCGUUCACGUCGCUGCCCCCGUCAGAUUCUGGUGAAUCUGCGAAUUCUGCUGUAUAUCUC [G9U A35U U41C]	0.41
UAACAGGGUGCCACAGCAGAAGCGUUCACGUCGCAGCCCCUGUCGGUUUCUGGUGAAUCUGCGAAUCCUGCUGUAUAUCUC [G9U A45G A47U U67C]	0.11
